94 sequences from the supplement of paper PMC3334620 can be followed below.

In all, about 33,000 sequences were measured (“E-score (-0.5 to 0.5)”: median about -0.043, highest 2% from about 0.37 on). This is one part of the list.

For this assay, the target named is T1, Upc2 (UniProt Q12151).
T1 sequence: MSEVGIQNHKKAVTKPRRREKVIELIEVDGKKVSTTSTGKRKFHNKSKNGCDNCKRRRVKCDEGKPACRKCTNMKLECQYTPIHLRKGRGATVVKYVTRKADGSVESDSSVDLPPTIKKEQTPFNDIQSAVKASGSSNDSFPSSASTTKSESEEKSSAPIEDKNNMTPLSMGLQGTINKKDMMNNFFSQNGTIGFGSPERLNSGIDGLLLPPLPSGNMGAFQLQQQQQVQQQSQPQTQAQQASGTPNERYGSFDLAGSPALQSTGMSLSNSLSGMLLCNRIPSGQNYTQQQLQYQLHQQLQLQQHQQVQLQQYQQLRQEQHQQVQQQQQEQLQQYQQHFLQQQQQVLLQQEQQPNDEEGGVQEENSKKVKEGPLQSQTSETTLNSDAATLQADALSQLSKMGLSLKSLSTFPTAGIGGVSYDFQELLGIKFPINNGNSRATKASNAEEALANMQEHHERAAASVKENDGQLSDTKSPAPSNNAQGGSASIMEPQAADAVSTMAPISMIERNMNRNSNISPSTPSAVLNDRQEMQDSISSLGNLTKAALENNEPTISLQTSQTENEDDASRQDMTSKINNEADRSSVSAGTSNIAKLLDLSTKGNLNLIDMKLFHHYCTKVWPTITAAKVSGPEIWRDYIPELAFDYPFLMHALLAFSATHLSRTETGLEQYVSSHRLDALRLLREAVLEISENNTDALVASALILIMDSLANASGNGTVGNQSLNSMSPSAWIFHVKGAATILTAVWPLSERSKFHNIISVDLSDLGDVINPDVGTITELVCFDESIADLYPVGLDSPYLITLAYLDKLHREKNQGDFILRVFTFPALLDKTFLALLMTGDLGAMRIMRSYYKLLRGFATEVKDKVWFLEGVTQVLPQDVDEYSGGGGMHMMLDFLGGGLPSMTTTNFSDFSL
As to the kind of experiment: PBM E-score (8-mer binding enrichment) (E-score (-0.5 to 0.5)); higher = stronger / more preferred TF binding; most listed sequences are background and not binding sites. As to conditions: protein concentration: 200 nM; construct: GST-full length. The gist of the method: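 Universal all-10-mer Agilent arrays, double-stranded by primer extension on fresh or once-stripped slides, were probed with about 100-200 nM GST-tagged yeast transcription factors made by PURExpress. Fluorescent anti-GST detected bound protein, and masliner normalised the scans. E-scores from the Universal PBM Analysis Suite were given to each ungapped eight-base word pooled with its reverse complement.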
With TCCGCCCA, the “PBM E-score” value is -0.166.
As to TAGGTATA, the “PBM E-score” value turned out to be 0.205.
Next, AAATATGC: 0.0217; GAATGGAC: -0.171.
Next, CCGTATTA: 0.296; AGGCGAAT: -0.00707.
For the sequence GGTACGAA, the “PBM E-score” value was 0.459.
For GCTCACAC, the “PBM E-score” value was -0.0356.
Next, GAGATGCA: 0.0212.
Next, ATGCTGGG: -0.16; AATTTACG: 0.335.
Next, ACCAGTCG: 0.107.
With AAGTCGGC, the “PBM E-score” value is -0.136.
Turning to CAGAGAAA, the “PBM E-score” value is -0.177.
Next, ATCGTGTC: 0.131.
Next, ATTAATGA: 0.0119; ACGTGAGG: -0.0389; ATCAGAGG: -0.198.
Consider AAACAATC, for which the “PBM E-score” value was -0.0625.
As for CAATCCCA, the “PBM E-score” value was -0.248.
For the sequence ATACATGG, the “PBM E-score” value was -0.124.
Next, CGCTTGAA: 0.171.
Next, ACAGGCGT: -0.185; ATCTTTAA: 0.164.
Take ACTTATAT: the “PBM E-score” value turned out to be 0.169.
Next, AGGGGCGC: -0.17.
Next, AAGGAGCC: -0.281; AAACTTTC: -0.21.
As for CCATGCTC, the “PBM E-score” value was -0.176.
Next, CAAAAGAA: 0.0597; CTCTGTGC: -0.171.
Turning to CAAGATTA, the “PBM E-score” value was -0.0496.
Next, CTTGTCTC: -0.218; AAAGCCCC: -0.0844.
In the case of CAAAGCAG, the “PBM E-score” value was -0.0805.
For the sequence AGGAGGAG, the “PBM E-score” value is -0.178.
For the sequence CTTTGATA, the “PBM E-score” value is -0.0233.
Next, CGGTGTTC: 0.0385.
Next, CAACTGTA: 0.0347; CCACTTCG: 0.0558.
Next, ATTGTTTC: 0.0235.
Consider ATGTCAGG, for which the “PBM E-score” value is -0.331.
As to CCCGAGGA, the “PBM E-score” value was 0.0277.
Next, CACCTAAC: -0.188; CTGGTTTA: 0.031.
Next, TCTCGACA: -0.0591; AGTACACA: 0.143; GCTTTCGA: -0.144.
For CAGCTACC, the “PBM E-score” value was -0.263.
Next, ATTGCTCA: -0.0871.
With CAATCCGG, the “PBM E-score” value was -0.0955.
Next, ATTTGCTC: -0.0784.
As to AGATTGTG, the “PBM E-score” value is -0.206.
Next, CGACGCAG: 0.0461.
Next, TCCCGTAA: 0.265.
Next, AGAGAAAG: -0.129; AACAGCTG: -0.0964; AACTGCAC: -0.0304.
GCTGAAGA: the “PBM E-score” value is -0.15.
Next, CTGGATTC: -0.0407; ACTTCCTC: -0.155.
Regarding CAGCCCTG, the “PBM E-score” value was -0.241.
Next, AAGACAAA: 0.0821; CAGCGGAC: -0.0352.
Next, TAAAGGTA: 0.04.
Next, CACTAAAG: -0.0675; CTTTGATC: -0.279; ATACCTCA: -0.196.
Take ATTACAAC: the “PBM E-score” value was -0.0624.
Next, CCCACTTA: -0.0764; CGCAACAG: -0.0833.
Take CCAGATCG: the “PBM E-score” value is 0.0708.
Next, ATTTTCAA: 0.00587.
For ACATAGAA, the “PBM E-score” value is -0.23.
Turning to AGCTGCCA, the “PBM E-score” value is -0.188.
Consider CAAACTAC, for which the “PBM E-score” value was -0.0136.
Next, GCTCCCAC: -0.323.
Next, CGTTCCGC: 0.385; CTAGGAAC: 0.0689; CTACAGCC: -0.304.
Next, AAAACTGC: 0.0016; AACCGTTG: -0.0628; CGTGGACA: -0.078.
As to ACGGTCGA, the “PBM E-score” value was 0.135.
Next, CGCATGCG: 0.176; ACAGGGCC: -0.027; GCACGGGC: -0.24.
Next, ATCTTTTA: 0.176; AAAGCCGT: 0.0751; CTGAATGA: -0.00417.
As for GCAAGTGC, the “PBM E-score” value is -0.223.
Consider AACCCTAA, for which the “PBM E-score” value was -0.138.
Next, ATAGAAGG: -0.111; AGCCCCTG: -0.138.
